110 molecules from PubChem BioAssay AID1362 (SRMLSC, 2008) can be followed below.

Molecules are shown by their SMILES. Some of the results follow. The main result of the screen is listed elsewhere. These columns were measured beside it and carry no call. The list favours compounds with an active or inconclusive main result.

The assay is described as follows: growth inhibition of WT strain, primary screen, mitochondrial fusion inhibitor project, WT and mutant strains, chemical genetic (AID 1362). Note: tested in S. cerevisiae. The conditions noted are these: mitochondrial fusion phenotypic screen, at 10 µM.
Take `C=CCn1c(=S)[nH]c2scc(-c3ccc(C)o3)c2c1=O`: the inhibition was 27.2%. With `O=C(CCSCc1ccccc1Cl)N1CCN(c2cccc(Cl)c2)CC1`, the inhibition stood at 38.5%. Under `O=C(Nc1ccccc1N1CCOCC1)c1cc(F)cc(F)c1` stands 66%; under `Cc1ccc(NC(=S)N(Cc2cccc(Br)c2)CC2CCC(C(=O)O)CC2)cc1Cl` (stereo not given), 13.1%.

`Cc1nc2cc(NS(=O)(=O)c3c(C)c(C)cc(C)c3C)ccc2s1`: the inhibition was found to be 23.8%. For the molecule `Cc1ccc(C)c(N=Nc2nc3ccccc3n2C)c1`, the inhibition came out at 67.4%.

Turning to `C=CCNC(=S)N/N=C/c1ccc(C(C)(C)C)cc1`, the inhibition came to 60.2%. For the molecule `CC(C)c1ccc(C2CC(=O)c3cnc(N4CCc5ccccc5C4)nc3C2)cc1` (stereo not given), the inhibition amounted to 51.9%.

With `O=C(CSc1nnnn1-c1ccc(Cl)cc1)N1CCc2ccccc2C1`, the inhibition is 81%.

As to `O=C(N/N=C/c1ccc[nH]1)c1cc(-c2ccc(Cl)cc2)nc2ccccc12`, the inhibition amounted to 39.8%.

Regarding `Cc1cc(N=Cc2cc(Cl)ccc2O)no1`, the inhibition came out at 4.67%. With `O=[N+]([O-])c1ccc(COc2ccc(-c3[nH]ncc3-c3ccc(Cl)cc3)c(O)c2)cc1`, the inhibition was determined as 90.3%. For `CCN1/C(=C/c2ccc3ccccc3[n+]2CC)C=Cc2ccccc21`, the inhibition was 75.8%.

Regarding `O=[N+]([O-])c1cccnc1N1CCC(c2cc(-c3cccc(C(F)(F)F)c3)n[nH]2)CC1`, the inhibition turned out to be 33.9%.

Regarding `C=C(C)COc1ccc(-c2nc(N)nc(C)c2Oc2ccccc2OC)c(O)c1`, the inhibition came out at 58.9%. On to `C(=N\N(Cc1ccccc1)c1ccccc1)/c1cccnc1`, for which the inhibition was 28.5%. `CCN(Cc1ccccc1)C(c1cccs1)c1nnnn1C1CCCCC1` (stereo not given): the inhibition worked out at 14.4%.

In the case of `S=C(Nc1ccc(Cl)cc1)Nc1cccc2cnccc12`, the inhibition is 50.4%. Take `Cn1c(-c2sc3cc(C(F)(F)F)cnc3c2-c2cccs2)n[nH]c1=S`: the inhibition was determined as 35.4%. For `Cc1csc(=Nc2cccnc2)n1CC1CCCCC1`, the inhibition is 46.1%. Under `Cc1ccccc1CN1CCc2c(OCC(=O)N3CCCc4ccccc43)cccc2C1=O` stands 29.8%. Consider `CSc1nncn1/N=C/c1ccc2c(c1)OCO2`, for which the inhibition came out at 0.91%. For `O=C(O)c1cc(-c2ccc(/C=C3/SC(=S)N(Cc4ccccc4)C3=O)o2)ccc1Cl`, the inhibition stood at 32.2%. Consider `N#CC(c1cccc(Cl)c1)c1ccc2c(C(F)(F)F)cc(C(F)(F)F)nc2n1` (stereo not given), for which the inhibition is 80%.

Regarding `O=c1cc(N2CCCCC2)c(-c2ccccc2)nn1Cc1c(Cl)cccc1Cl`, the inhibition was found to be 33.2%. Regarding `Cc1ccc(NC(=S)Nc2ccc(OC(F)F)c(Cl)c2)cc1Cl`, the inhibition was 36.1%. Turning to `O=C1Nc2ccc(Br)cc2C12NNc1ccccc1O2` (stereo not given), the inhibition came to 82%. `O=C(OC(C(=O)Nc1cc(Cl)cc(Cl)c1)c1ccccc1)C1=COCCO1` (stereo not given): the inhibition amounted to 23.1%. Regarding `O=C(N/N=C/c1ccccn1)c1[nH]c2ccc([N+](=O)[O-])cc2c1-c1ccccc1`, the inhibition was determined as 18.8%. With `CCCCN(CC)S(=O)(=O)c1ccc(C(=O)N(CCCN(C)C)c2nc3cc(C)cc(C)c3s2)cc1`, the inhibition came to 68.5%. Consider `COc1ccc(CC(=O)N2CCOCC2)cc1OC`, for which the inhibition came to 16.6%. In the case of `CC(C)Oc1ccc(C(=O)Nc2cccc3cccnc23)cc1`, the inhibition turned out to be 40%.

In the case of `O=C(/C(=C/O)N=Nc1ccccc1)c1ccc(Cl)cc1`, the inhibition amounted to 25%. On to `Cc1ccc(OCC(=O)N2CCN(c3nnc(-c4ccc(C)cc4)c4ccccc34)CC2)cc1`, for which the inhibition came out at 50.2%. As for `CCOC(=O)C1(S(=O)(=O)c2ccc(Cl)cc2)CCN(Cc2ccc(Cl)cc2)CC1`, the inhibition was determined as 60.2%. Consider `O=C(COc1ccc(Cl)cc1Cl)Nc1ccccn1`, for which the inhibition came out at 61.1%. Consider `Cc1nn(-c2cc(C)c3ccccc3n2)c2c1C1C(C2)C1(C)C` (stereo not given), for which the inhibition was -0.27%. In the case of `OCCNCc1cc(Br)ccc1OCc1ccc(Cl)cc1Cl`, the inhibition stood at 33.2%. `O=C(NCCCN1CCOCC1)c1ccccc1-c1ccccc1`: the inhibition was -5.93%. In the case of `CCOC(=O)C(C)c1nc2ccccc2[nH]c1=O` (stereo not given), the inhibition was found to be 13.6%. Regarding `Cc1cccc(CN2CCN(C(c3ccccc3)c3ccc(Cl)cc3)CC2)c1` (stereo not given), the inhibition turned out to be 56.8%. As to `CCNc1nc(Sc2ccc(C)cc2)cc(C(F)(F)F)n1`, the inhibition came to 46.5%. For the molecule `Cc1cccc(C(=O)CC(=O)c2cc(Cl)ccc2O)c1`, the inhibition was 56.2%. To `COc1ccc(-c2nc3ccccc3s2)cc1O` belongs 0.14%; to `CC[n+]1ccc(/C=C/c2ccc(N(C)C)cc2)c2ccccc21`, 83.5%; to `CC(C)C(=O)NCCc1nc2ccccc2n1CCCOc1ccc(Cl)cc1`, 2.99%. Consider `O=C(Nn1c(C2CCCCC2)nc2ccccc2c1=O)c1ccc(Cl)c([N+](=O)[O-])c1`, for which the inhibition was 22.4%. In the case of `CSc1nc(C(=O)N2CCc3c([nH]c4ccccc34)C2c2ccccn2)cs1` (stereo not given), the inhibition worked out at 39.9%.

As to `Cc1nc(NC(=O)CC(C)C)sc1-c1csc(Nc2ccc(Cl)cc2)n1`, the inhibition was 63.1%. To `COc1ccc(C)cc1S(=O)(=O)Nc1ccc(F)cc1` belongs 21.4%; to `COC(=O)C1C(c2ccccc2)C(C(=O)OCc2ccco2)C1c1ccccc1` (stereo not given), 64.7%; to `COc1nc(N2CCCCCC2)nc(N2CCCCCC2)n1`, 27.6%.

Consider `COc1cc(SC)ccc1C(=O)NCCOc1ccc(Cl)cc1`, for which the inhibition was found to be 47.6%.

Turning to `Cc1ccc(NC(=S)NCc2ccc3[nH]c4c(c3c2)CCCC4)cc1`, the inhibition was found to be 44.2%.

Take `O=C(/C=C/c1ccc(Br)o1)NC(c1ccccc1)c1ccccc1`: the inhibition turned out to be 36.7%. For the molecule `C=CCC(C(=O)OC)(C(=O)OC)c1ccc([N+](=O)[O-])cn1`, the inhibition was -15.9%. As to `Cc1cccc(OCc2n[nH]c(=S)n2Cc2ccccc2)c1`, the inhibition stood at 51.1%. For `COc1ccccc1-n1c(-c2ccccc2)c[n+]2c1CCc1ccccc1-2`, the inhibition amounted to 47.6%. Under `CC1Oc2ccccc2C=C1/C=N/NC(=O)c1ccccc1O` (stereo not given) stands 41.4%; under `O=C(/C=C/c1cccc(Cl)c1)N1CCC(Cc2ccccc2)CC1`, 28.9%; under `CCOC(=O)c1c(C)[nH]c(C)c1C(=O)COC(=O)/C=C/c1cccc(C(F)(F)F)c1`, -8.44%.

Take `CCCCc1ccc(NC(=S)NCc2cccc(OC)c2)cc1`: the inhibition amounted to 57.8%. Take `CC(=Nc1ccc(C)cc1C)c1sc2ccccc2c1O`: the inhibition came out at 47.3%. Consider `COc1cccc(CNC(=O)CNC(=S)N(Cc2ccccc2)Cc2ccccc2F)c1`, for which the inhibition is 4.06%. As for `Cc1ccc(C(c2nnnn2C2CCCCC2)N(C)C2CCCCC2)cc1` (stereo not given), the inhibition stood at 67.3%. As to `C/C(=N\NC(=S)NCc1ccccc1)c1ccc(Br)cc1`, the inhibition stood at 49.4%. As for `CC(C)Cn1c(N)c(C(=O)COC(=O)c2cc(C(F)(F)F)nc3c(C(F)(F)F)cccc23)c(=O)n(C)c1=O`, the inhibition came to 11.9%. In the case of `CCOc1ccc(C(C)NC(=S)NC2CCCCC2)cc1` (stereo not given), the inhibition amounted to 65.1%. With `c1cn2cc(-c3ccc4c(c3)OCO4)nc2s1`, the inhibition was found to be 67.1%. As for `CCCCCC(=O)Nc1cc(N(C)C)nc2ccccc12`, the inhibition was -0.46%. Consider `O=c1c2ccccc2nc(SCc2ccccc2Cl)n1Cc1ccccc1`, for which the inhibition stood at 22.3%. As to `C/C(=N\NC(=S)NCc1ccccc1)c1ccc2ccccc2c1OC(F)F`, the inhibition was 15%.

On to `CC(C)C(c1nnnn1C1CCCC1)N1c2ccccc2CC1C` (stereo not given), for which the inhibition came to 22.9%. In the case of `Cc1ccc(Nc2nc(N)nc(CSc3nc4ccccc4s3)n2)cc1`, the inhibition was determined as 12.5%.

For the molecule `Cc1ccc2sc(N(CCCN(C)C)C(=O)c3ccc(Br)s3)nc2c1C`, the inhibition turned out to be 87%. On to `Cc1cccc(NC(=S)NCCSc2ccc(Cl)cc2)c1`, for which the inhibition amounted to 62.4%. For `Cc1c(-c2cccs2)[n+](=O)c2c(n1[O-])CCCCC2`, the inhibition came out at 37.6%. On to `Cc1ccc(-c2cc(-c3ccccc3)c(C#N)c(N)n2)o1`, for which the inhibition came out at 0.98%.

On to `O=C(Nc1ccccn1)c1ccco1`, for which the inhibition was -6.61%. `O=C(C1=C[C@@H](C2CCCCC2)C[C@@H](OCc2ccc(CO)cc2)O1)N1CCN(Cc2ccc3c(c2)OCO3)CC1`: the inhibition came to 27.1%. With `CCCC(=O)C1=C(O)C(c2cccc(Oc3ccccc3)c2)CCC1=O` (stereo not given), the inhibition came to 57.9%.

As for `Cc1cc[n+](CC(=O)c2ccc(NC(=O)c3ccccc3)cc2)c2ccccc12`, the inhibition came out at 20.1%.

In the case of `OC1CCCN(c2c3c(nc4cc(-c5cccc(Cl)c5)nn24)CCC3)C1` (stereo not given), the inhibition was found to be 65.1%. Under `Cc1ccc(S(=O)(=O)Nc2ccc(C(OC(=O)c3ccccc3[N+](=O)[O-])(C(F)(F)F)C(F)(F)F)cc2)cc1` stands 15.9%; under `COc1ccc(-c2n[nH]c(C(F)(F)F)c2-c2cc3ccccc3o2)c(O)c1`, 86.6%; under `Cc1ccc(-c2nnc(SCc3ccccc3F)o2)cc1`, 39.3%. For the molecule `COc1ccc(NC(=O)c2csc(Cc3ccc(Cl)cc3)n2)cc1`, the inhibition is 4%. Under `COc1ccc(-c2[nH]c(-c3cc(OC)c4c(c3)OCO4)nc2-c2ccccc2)cc1` stands 10.3%; under `Cc1cc(/C=N/n2cnnc2)c(C)n1-c1ccc(OCc2ccc(Cl)cc2)cc1`, 50.5%. With `O=C(CCSc1ccc(Cl)cc1)NC12CC3CC(CC(C3)C1)C2`, the inhibition came out at 28%. Consider `CC(=O)COc1cc(C)cc2oc(=O)c(C)c(C)c12`, for which the inhibition was determined as 37.7%. In the case of `OC(COc1ccccc1)Cn1c2ccccc2c2ccccc21` (stereo not given), the inhibition is 51.3%.

As to `CCCOc1ccc(C2C(C(=O)c3ccco3)=C(O)C(=O)N2CCN2CCOCC2)cc1OC` (stereo not given), the inhibition was -3.73%.

On to `Cc1ccc(SCCNC(=S)Nc2cc(C)ccc2C)cc1`, for which the inhibition came out at 64.2%.

Turning to `O=C1/C(=C/c2ccncc2)CCC/C1=C\c1ccncc1`, the inhibition worked out at 42.1%. Consider `COc1ccc(S(=O)(=O)N2CCC[C@H]2C(=O)NC2=NCCS2)cc1`, for which the inhibition was found to be 1.49%. Turning to `COc1ccc(NC(=S)NNC(=O)COc2ccc(Cl)cc2Cl)cc1`, the inhibition was -3.89%.

As for `N#Cc1c(-c2cccnc2)c2c([nH]c1=S)CCCC2`, the inhibition is -8%.

For the molecule `Cc1ccc(Cl)cc1N1CCN(CC(=O)NC2CCCc3ccccc32)CC1` (stereo not given), the inhibition was found to be 7.4%.

With `CC1CCC(C(C)C)C(OC(=O)Cn2c(-c3ccc(Br)cc3)[n+](C)c3ccccc32)C1` (stereo not given), the inhibition worked out at 30.6%.

For the molecule `COc1ccc(Cn2nc(-c3ccccc3)c(N3CCCCC3)cc2=O)cc1`, the inhibition is 3.25%. For `Cc1ccsc1/C=N/Nc1nc(=O)[nH]nc1C`, the inhibition was 60.5%. On to `CC1CCCc2sc3nc(NCc4ccco4)n4ncnc4c3c21` (stereo not given), for which the inhibition turned out to be 75.8%. On to `COc1ccc2c(c1)/C(=N/OC(=O)c1cccs1)CCC2`, for which the inhibition stood at 23.5%.

For `CNC(=S)N(CCc1c(C)[nH]c2ccc(C)cc12)Cc1cccs1`, the inhibition came out at 36.2%. With `Cc1ccc2cc(CN(Cc3cccs3)C(=O)c3ccco3)c3nnnn3c2c1C`, the inhibition came to 43.6%. In the case of `Cc1nc(N)nc(N)c1/C=C/C(C)(C)c1ccc(Cl)cc1`, the inhibition came out at 39.4%. Regarding `COc1cccc(/C=N/n2c(C)nc3ccccc32)c1OC`, the inhibition was found to be 48.3%. Consider `CCC(=O)OCCNc1cc(Sc2nc3ccccc3s2)c2nonc2c1[N+](=O)[O-]`, for which the inhibition is 91.8%.

Consider `C/C(N)=C(/C#N)C(=O)CSc1nnnn1-c1ccccc1`, for which the inhibition is -4.22%.

For orientation: inhibition means the change of the read-out against control, counted positive when it falls.
